Whole data set: some 33,000 sequences, median “E-score (-0.5 to 0.5)” near -0.035, cut for the highest 2% near 0.34. The list shows a part of the results.
What follows are sequences tested against T1, Mot3 (UniProt P54785) (assay: PBM E-score (8-mer binding enrichment) (E-score (-0.5 to 0.5)); higher = stronger / more preferred TF binding; most listed sequences are background and not binding sites). Conditions: protein concentration: 200 nM; construct: GST-full length.
T1 sequence: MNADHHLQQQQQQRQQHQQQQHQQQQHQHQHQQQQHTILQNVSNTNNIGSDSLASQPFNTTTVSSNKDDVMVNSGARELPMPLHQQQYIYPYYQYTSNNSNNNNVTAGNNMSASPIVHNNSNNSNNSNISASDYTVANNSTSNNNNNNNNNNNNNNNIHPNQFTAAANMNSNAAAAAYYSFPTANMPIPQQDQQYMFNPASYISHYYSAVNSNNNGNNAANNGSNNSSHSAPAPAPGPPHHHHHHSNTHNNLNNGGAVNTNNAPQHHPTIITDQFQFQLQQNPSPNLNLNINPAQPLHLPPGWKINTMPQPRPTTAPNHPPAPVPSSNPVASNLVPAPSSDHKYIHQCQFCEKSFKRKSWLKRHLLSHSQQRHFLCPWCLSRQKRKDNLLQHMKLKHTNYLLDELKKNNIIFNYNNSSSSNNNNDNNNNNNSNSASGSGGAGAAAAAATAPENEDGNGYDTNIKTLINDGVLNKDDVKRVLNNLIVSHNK
Experimental: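 Universal 'all 10-mer' protein binding microarrays (Agilent AMADID 015681) probed with GST-tagged S. cerevisiae TFs (full-length or DBD) made by in vitro transcription/translation (PURExpress), about 100-200 nM. Bound TF was detected with fluorescent anti-GST. Each ungapped 8-mer (which stands for itself and its reverse complement) is scored by the PBM enrichment score (E-score), a modified Wilcoxon-Mann-Whitney statistic from -0.5 to +0.5, computed with the Universal PBM Analysis Suite. Scale: above 0.35 generally sequence-specific binding.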

| Sequence | PBM E-score |
| --- | --- |
| CATCTTGA | 0.123 |
| ACTGACCG | -0.231 |
| AACGCATT | 0.174 |
| GGAGATAC | -0.137 |
| CTTCCCGA | -0.212 |
| CGTGACAA | -0.021 |
| GGGACGAA | -0.0575 |
| CAGGGCGA | -0.0585 |
| ATCTTGAG | 0.198 |
| AGCCCAAC | -0.0305 |
| CGTCGCAG | -0.135 |
| ATCGACTC | -0.116 |
| AGTCATCA | -0.147 |
| CAATGATG | 0.0393 |
| CCCGGTGA | -0.276 |
| ACGTAACC | 0.169 |
| GGATGGTA | 0.172 |
| GGACATTA | 0.0447 |
| ATGATTAG | 0.0811 |
| ATAGGACG | -0.129 |
| AGCCACCT | -0.118 |
| GGCTACCA | 0.0469 |
| GATTTCAA | -0.0229 |
| TGATAAAA | 0.0406 |
| GCCGTGAC | -0.0322 |

| Sequence | PBM E-score |
| --- | --- |
| GCATGCGA | 0.0389 |
| GGTTCTGA | 0.135 |
| CGTTACGA | 0.0257 |
| CCCCTCCC | -0.254 |
| ATGGCCCA | -0.188 |
| TAAAAGTA | 0.0712 |
| AATCAAGA | 0.0723 |
| CCAAAACC | -0.0902 |
| ACTGTCTG | -0.103 |
| AAATAGTA | 0.0336 |
| GTCAACAA | 0.112 |
| AGCCAGCC | -0.0717 |
| GCCGCCTA | -0.195 |
| CGTGGGGC | -0.426 |
| AAGCTAAT | -0.0226 |
| AGTTATCG | -0.0747 |
| CTGTGTAC | 0.294 |
| ACCAACAT | 0.29 |
| CTATCGAG | -0.169 |
| CCGTACTC | -0.203 |
| GGTCACCA | -0.227 |
| CCAGCGAA | -0.151 |
| CAGATCCA | -0.149 |
| CAGGTGAA | 0.079 |
| ACTGTAAA | 0.191 |

| Sequence | PBM E-score |
| --- | --- |
| AAACCAAA | 0.18 |
| CATAAGAC | -0.0242 |
| ATGGGTAG | -0.185 |
| TGACCGAA | -0.126 |
| GGCAGTAA | -0.0832 |
| GCAGCACA | -0.144 |
| ACCCGGAG | -0.004 |
| GCCGACAC | -0.00156 |
| GAGGATTA | 0.0124 |
| CTTCGATA | -0.0798 |
| GAACTTGC | 0.194 |
| CCCGAAAA | 0.0841 |
| AGTGTGCC | 0.355 |
| CGGGGGTA | -0.123 |
| GCCTGCCA | 0.195 |
| CATGTACC | 0.255 |
| AGGCTAAT | -0.0899 |
| CACGCTTA | 0.174 |
| AATGCTGT | 0.0173 |
| ACGGGCTA | -0.0255 |
| GCTTGCAA | 0.125 |
| TAATCTCA | 0.00851 |
| CCGCGACG | -0.246 |
| ACATGGCG | 0.163 |
| AAGTTAAA | 0.219 |

| Sequence | PBM E-score |
| --- | --- |
| ATAGGTAG | 0.109 |
| CTTCTGAA | -0.192 |
| AGACCGAG | 0.0195 |
| GCGAATAA | 0.051 |
| AAGTCCAG | -0.0785 |
| CCAGGGCC | -0.154 |
| GGAATGGA | -0.122 |
| ACTTAAGC | 0.00182 |
| CGGGACGA | -0.174 |
| AAAAAGAG | -0.0762 |
| AATTCTAC | 0.106 |
| ACGATAAG | -0.105 |
| CTGGGAAG | -0.17 |
| AAAGGGCC | -0.132 |
| CTGAGAAC | 0.0275 |
| CAAATGTC | -0.0375 |
| TCATTTCA | 0.0512 |
| ATTGGCGC | -0.0773 |
| ATGCACCC | -0.156 |
| ACATGGAC | 0.265 |
| AGCCCACA | -0.164 |
| CGGCATTC | -0.249 |
| GGACAAAA | -0.0303 |
| GGGGTATA | -0.0983 |
| CACTCGAC | -0.0983 |

| Sequence | PBM E-score |
| --- | --- |
| AAAGGACT | -0.211 |
| GCCCGCAA | -0.0432 |
| GTTCGCCA | -0.103 |
| ATCATCAT | -0.116 |
| GAATAGGA | 0.154 |
| CATCAAAA | -0.109 |
| AAACTAAG | 0.0831 |
| ACAGATAT | -0.00474 |
| ACGTTTCG | 0.0515 |
| CGGATCTA | 0.0161 |
| CTCTTACA | 0.159 |
| CGGAGCAA | -0.132 |
| ATGTAAAC | 0.414 |
| ACACGCCA | 0.226 |
| ACTCCCGC | -0.25 |
| TAGAGCGA | -0.107 |
| AGCTGTCC | -0.181 |
| ACTAAAAC | 0.0977 |
| TACGAAAA | 0.0579 |
| CGTCACCA | -0.356 |
| AAACCTGC | -0.0203 |
| CCCCGACC | -0.257 |
| CGGCAACA | 0.0868 |
| AATAATGC | 0.16 |
| GGGTGTCA | -0.0655 |

| Sequence | PBM E-score |
| --- | --- |
| TACGCCTA | 0.107 |
| AGAGTTTG | 0.0686 |
| ATCCTTAG | 0.0242 |
| ATCTCACG | -0.154 |
| GGCTATAA | 0.0956 |
| AGATAGAT | -0.179 |
| ACCACAGG | -0.0579 |
| ATCCCGCC | -0.205 |
| GCAACAGA | 0.0208 |
| AACCTCAT | -4e-05 |
| AGGCTCAA | 0.143 |
| CGCAATTC | -0.0703 |
| ACGCGTAA | 0.317 |
| ATGAATGG | -0.0783 |
| CAAAGCGC | -0.213 |
| ACCCGGAT | -0.299 |
| CGGACCAG | -0.16 |
| ACACGGCG | 0.255 |
| CGGGCCTA | -0.105 |
| GACGAGCC | -0.12 |
| GAACTTTA | 0.0429 |
| CATTGATC | -0.106 |
| ATGTATAC | 0.335 |
| ACGACCCA | -0.102 |
| GCATGCTA | -0.0217 |

| Sequence | PBM E-score |
| --- | --- |
| CGGCCACA | -0.234 |
| AATGAACA | 0.155 |
| GTATACGA | 0.0121 |
| GGCACGCC | 0.237 |
| CATTTTCC | 0.0741 |
| TTAAACAA | 0.153 |
| CATCCGGG | -0.188 |
| CAAAAGGC | 0.209 |
| GTTCCCGA | 0.049 |
| AAGGACTG | -0.167 |
| GCCCTAAC | 0.0795 |
| CTCATGGC | -0.227 |
| TAGCTATA | -0.0969 |
| CCAAAGCC | -0.00526 |
| CCGTCTAG | -0.0693 |
| ACACAGTC | 0.144 |
| GTCTCTAA | -0.157 |
| AACCGCAA | -0.0523 |
| ACTACATA | 0.325 |
| CTGATGCC | 0.215 |
| CTTTCTCC | -0.177 |
| CTAATCAC | 0.0311 |

— the supplement of paper PMC3334620
